# This is one part of the list.
# What was measured:
# HSkMC = human skeletal muscle cells; test: cytotoxicity call (relative viability < 0.9); details: 10 µM
# HepG2 = test: cytotoxicity call (relative viability < 0.9); details: 10 µM
# S. aureus RN4220 = test: growth inhibition call (relative growth <= 0.2); details: 50 µM
Structure (SMILES),cytotoxicity call (HSkMC),cytotoxicity call (HepG2),growth inhibition call (S. aureus RN4220)
C[C@@H]1CCCCO[C@@H](CN(C)Cc2ccccc2)[C@H](C)CN([C@@H](C)CO)C(=O)c2cc(NC(=O)Nc3ccc(F)cc3)ccc2O1,inactive,inactive,inactive
CNC(=O)Cn1cc(Br)cn1,inactive,inactive,inactive
Cc1ccccc1S(=O)(=O)N1C[C@@H](O)COC[C@H]2O[C@@H](CC(=O)N3CCN(C)CC3)CC[C@@H]21,inactive,inactive,inactive
CCOC(=O)[C@H]1C/C=C/C[C@H](C(=O)OCC)C(=O)O[C@H]2[C@@H](OC)O[C@H](CO)[C@@H](OC(=O)c3c(OC)cccc3OC)[C@@H]2OC1=O,inactive,inactive,inactive
CC(C)NC(=O)Nc1cccc2c1O[C@H](CN(C)Cc1ccc3c(c1)OCO3)[C@@H](C)CN([C@@H](C)CO)C2=O,inactive,inactive,inactive
Nc1ccn(C2OC(CO)C(O)C2O)c(=O)n1 (stereo not given),inactive,inactive,inactive
CNS(=O)(=O)Cc1ccc2[nH]cc(CCN(C)C)c2c1,inactive,inactive,inactive
COc1ccc(NC(=O)Nc2cccc3c2O[C@@H](CN(C)Cc2ccc(C(=O)Nc4ccccc4N)cc2)[C@H](C)CN([C@H](C)CO)C3=O)cc1,inactive,inactive,inactive
NCc1cn(Cc2ccc(Cl)c(Cl)c2)cn1,inactive,inactive,inactive
CC(C)NC(=O)N(C)C[C@H]1Oc2c(NC(=O)NC3CCCCC3)cccc2C(=O)N([C@H](C)CO)C[C@@H]1C,inactive,inactive,inactive
C[C@@H]1CN([C@@H](C)CO)C(=O)c2cc(NC(=O)Cc3cn(C)c4ccccc34)ccc2O[C@@H]1CN(C)C(=O)Nc1ccc(C(F)(F)F)cc1,active,inactive,inactive
Cc1ccc(S(=O)(=O)Nc2ccc3c(c2)C(=O)N([C@@H](C)CO)C[C@@H](C)[C@@H](CN(C)S(=O)(=O)c2ccccc2)O3)cc1,inactive,inactive,inactive
CC(c1cc2ccccc2s1)N(O)C(N)=O (stereo not given),inactive,inactive,inactive
C[C@@H]1CN([C@@H](C)CO)C(=O)c2cc(NS(=O)(=O)c3ccccc3)ccc2O[C@@H]1CN(C)S(=O)(=O)c1cn(C)cn1,inactive,inactive,inactive
COc1ccc(S(=O)(=O)N(C)C[C@@H]2Oc3c(NC(=O)c4cnccn4)cccc3C(=O)N([C@H](C)CO)C[C@@H]2C)cc1,inactive,inactive,inactive
C[C@@H]1CCCCO[C@H](CN(C)Cc2ccc(C(F)(F)F)cc2)[C@@H](C)CN([C@@H](C)CO)C(=O)c2cc(NC(=O)Nc3ccc(C(F)(F)F)cc3)ccc2O1,inactive,inactive,inactive
O=C(C[C@H]1CC[C@H]2[C@@H](COC[C@@H](O)CN2S(=O)(=O)c2ccc(Oc3ccccc3)cc2)O1)NCCN1CCCCC1,inactive,inactive,inactive
COc1ccccc1[C@@H](NC(=O)C1CCN(CCn2cnc3c2c(=O)n(C)c(=O)n3C)CC1)c1ccccn1,inactive,inactive,inactive
NCCS(=O)(=O)N1CCN(c2ccc(F)cc2)CC1,inactive,inactive,inactive
C[C@@H]1CN([C@H](C)CO)C(=O)Cc2cc(NS(=O)(=O)c3cn(C)cn3)ccc2O[C@@H]1CN(C)S(=O)(=O)c1cn(C)cn1,inactive,inactive,inactive
C=CCN1C[C@@]23C=C[C@@H](O2)[C@@H](C(=O)O)C3C1=O (stereo not given in full),inactive,inactive,inactive
Cc1ccc(S(=O)(=O)Nc2ccc3c(c2)C(=O)N([C@H](C)CO)C[C@H](C)[C@H](CN(C)C(=O)NC2CCCCC2)OCCCC[C@H](C)O3)cc1,inactive,inactive,inactive
C/C=C/c1cccc(-c2nc(C(=O)NCc3cccc(OC)c3)cc3c2[C@H](CCO)N([S@@](=O)C(C)(C)C)C3)c1,inactive,inactive,inactive
Cn1cccc1C(=O)NCc1cn2c(n1)CN(S(C)(=O)=O)CC2,inactive,inactive,inactive
Cc1ccc(S(=O)(=O)Nc2ccc3c(c2)CC(=O)N([C@H](C)CO)C[C@H](C)[C@H](CN(C)S(=O)(=O)c2ccc(F)cc2)O3)cc1,inactive,inactive,inactive
C=CC[C@H](CC(=O)N[C@@H](CO)Cc1ccccc1)C(=O)N[C@@H](COC(=O)[C@@H](CC=C)Cc1ccc(F)cc1)Cc1ccccc1,inactive,inactive,inactive
C[C@H](CO)N1C[C@H](C)[C@H](CN(C)C(=O)Nc2ccc(F)cc2)OCCCC[C@H](C)Oc2ccc(NC(=O)C3CCOCC3)cc2C1=O,inactive,inactive,inactive
COC(=O)C1CC2=CC(=O)CCC2(C)C23OC2CC2(C)C(CCC24CCC(=O)O4)C13 (stereo not given),inactive,inactive,inactive

Structure (SMILES),cytotoxicity call (HSkMC),cytotoxicity call (HepG2),growth inhibition call (S. aureus RN4220)
O=C(C[C@@H]1C[C@@H]2c3cc(NC(=O)Cc4ccncc4)ccc3O[C@@H]2[C@@H](CO)O1)NCCN1CCCCC1,inactive,inactive,inactive
C[C@H]1CCCCO[C@@H](CN(C)Cc2ccc(C(F)(F)F)cc2)[C@@H](C)CN([C@@H](C)CO)C(=O)c2cc(NS(=O)(=O)c3cn(C)cn3)ccc2O1,inactive,inactive,inactive
Cc1onc(-c2ccccc2)c1C(=O)NC1C(=O)N2C1SC(C)(C)C2C(=O)[O-].[Na+] (stereo not given),inactive,inactive,active
CO[C@@H]1CN(C)C(=O)c2cc(NS(C)(=O)=O)ccc2OC[C@H](C)N(C(=O)C2CCOCC2)C[C@@H]1C,inactive,inactive,inactive
C[C@H](CO)N1C[C@H](C)[C@H](CN(C)C(=O)Nc2ccc(C(F)(F)F)cc2)Oc2ncc(/C=C/c3ccccc3)cc2C1=O,inactive,inactive,inactive
O=C(C[C@H]1CC[C@@H]2[C@H](COC[C@H](O)CN2C(=O)Nc2ccc3c(c2)OCO3)O1)N1CCN(c2ccccc2)CC1,inactive,inactive,inactive
CCO[C@H]1OC(C(=O)N2CCN(Cc3ccccc3)CC2)=C[C@@H](c2cn(C(C)=O)c3ccccc23)[C@@H]1CCCOC(=O)NCCCCCC(=O)NO,inactive,inactive,inactive
O=C(CCCCCNC(=O)OCc1ccc(CO[C@H]2C[C@@H](c3csc4ccccc34)C=C(C(=O)N3CCN(Cc4ccccc4)CC3)O2)cc1)NO,inactive,inactive,inactive
CN(C)CCO[C@@H]1CC[C@@H]2[C@H]1OCCN2S(C)(=O)=O,inactive,inactive,inactive
COc1ccc(CN(C)C[C@H]2OCCCC[C@H](C)Oc3ccc(NC(=O)Cc4ccccc4)cc3C(=O)N([C@@H](C)CO)C[C@H]2C)cc1,inactive,inactive,inactive
C[C@H]1CN([C@@H](C)CO)C(=O)Cc2cc(NC(=O)Cc3cn(C)c4ccccc34)ccc2O[C@@H]1CN(C)S(=O)(=O)c1cn(C)cn1,inactive,inactive,inactive
COc1ccc(NC(=O)N(C)C[C@@H]2Oc3ccc(NC(=O)Cn4cnnn4)cc3CC(=O)N([C@H](C)CO)C[C@H]2C)cc1,inactive,inactive,inactive
CN1CCN(C(=O)C[C@H]2C[C@@H]3c4cc(NS(=O)(=O)c5ccc(F)cc5)ccc4O[C@@H]3[C@@H](CO)O2)CC1,inactive,inactive,inactive
Nc1cnccn1,inactive,inactive,inactive
Cc1ccc(S(=O)(=O)N(C)C[C@@H]2Oc3cc(C#Cc4ccccc4)ccc3S(=O)(=O)N([C@H](C)CO)C[C@@H]2C)cc1,inactive,inactive,inactive
CN1CCN(C(=O)C[C@@H]2C=C[C@H](NC(=O)Cc3ccccn3)[C@@H](CO)O2)CC1,inactive,inactive,inactive
CN(C)C(=O)C[C@H]1CC[C@@H](NC(=O)C2CCOCC2)[C@H](CO)O1,inactive,inactive,inactive
CNC(CC(C)C)C(=O)NC1C(=O)NC(CC(N)=O)C(=O)NC2C(=O)NC3C(=O)NC(C(=O)NC(C(=O)O)c4cc(O)cc(O)c4-c4cc3ccc4O)C(O)c3ccc(c(Cl)c3)Oc3cc2cc(c3OC2OC(CO)C(O)C(O)C2OC2CC(C)(N)C(O)C(C)O2)Oc2ccc(cc2Cl)C1O.Cl (stereo not given),inactive,inactive,active
C[C@@H]1CN([C@@H](C)CO)C(=O)c2c(c3ccccc3n2C)-c2ccccc2CO[C@@H]1CN(C)C(=O)c1cc(Cl)cc(Cl)c1,inactive,active,inactive
CN(C)CC(=O)N1[C@@H]2Cn3c(ccc(-c4cccnc4)c3=O)[C@H]1[C@@H](C(=O)NC1CCC1)[C@@H]2CO,inactive,inactive,inactive
C[C@@H]1CN([C@H](C)CO)C(=O)Cc2cc(NC(=O)c3ccncc3)ccc2O[C@H]1CN(C)S(=O)(=O)c1ccccc1,inactive,inactive,inactive
Cc1noc(C)c1S(=O)(=O)Nc1ccc2c(c1)CC(=O)N([C@@H](C)CO)C[C@H](C)[C@@H](CN(C)Cc1ccc(Oc3ccccc3)cc1)O2,inactive,inactive,inactive
C[C@H]1CN([C@@H](C)CO)C(=O)Cc2cc(NC(=O)NC3CCCCC3)ccc2O[C@@H]1CN(C)Cc1ccc(C(F)(F)F)cc1,inactive,inactive,inactive
C[C@H](CO)N1C[C@H](C)[C@@H](CN(C)S(=O)(=O)c2ccc(Cl)cc2)OCc2cn(nn2)CCCC1=O,inactive,inactive,inactive
CN(C)[C@@H]1C(=O)[C@@H](C(N)=O)C(=O)[C@@]2(O)C(=O)[C@H]3C(=O)c4c(O)cccc4C[C@H]3C[C@@H]12,inactive,inactive,inactive
C[C@@H]1CN([C@H](C)CO)C(=O)c2cc(NC(=O)CCCN(C)C)ccc2O[C@@H]1CN(C)S(=O)(=O)c1ccc(Cl)cc1,inactive,inactive,inactive
COc1ccc(S(=O)(=O)Nc2ccc3c(c2)C(=O)N([C@H](C)CO)C[C@@H](C)[C@H](CN(C)C(=O)Nc2ccccc2)OCCCC[C@@H](C)O3)cc1,inactive,inactive,inactive
